The campaign covered roughly 420,000 compounds. About 64,000 (15%) were called active. This list was built around the results that the source calls inconclusive (neither active nor inactive); the mix of calls is not that of the screen. The call rests on the fitted dose curve; in most records, active means well fitted inhibition curve with a large enough effect; inconclusive means small, poorly fitted or top-dose-only effect; inactive means flat fitted curve, though single readings scatter. Potencies of inconclusive entries are left out as doubtful fits.
Experiment: qHTS for Inhibitors of human tyrosyl-DNA phosphodiesterase 1 (TDP1): qHTS in cells in absence of CPT; further: nearly all actives have a fitted effect of over 55% in size
Details: DT40 Tdp1-/- hTDP1 cells, no CPT, ATP luminescence, 48 h; activity change, negative = growth inhibition: at 46.2 µM (top of the series) unless noted
Method in brief: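 No-CPT arm: Tdp1-/-;hTDP1 DT40 cells (400/well) plus compounds, incubated ≥48 hr at 37 °C. Readout CellTiter-Glo luminescence.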
On the % scale 0 is the no-effect control and ±100 the full control effect; potency means the concentration at half of the fitted maximal effect; tags describe the fitted curve by direction and shape.

Row | Structure (SMILES) | activity change, negative = growth inhibition | Potency
1 | Cc1cccc(NC(=S)N2CCN(c3ccccc3)CC2)c1 | inactive: -11.9% | 
2 | Nc1nc2c(ncn2C2C[C@H](O)[C@@H](CO)O2)c(=O)[nH]1 (stereo not given in full) |  | active: 6.51 µM
3 | Cc1ccc(N(Cc2cc3ccc(C)cc3[nH]c2=O)C(=O)c2cccs2)cc1 | inactive: -14.6% | 
4 | CN(CC(=O)Nc1ccccc1C(F)(F)F)C(=O)C1CCN(C(=O)c2ccc(Cl)cc2)CC1 |  | inconclusive [inhibitor, single point]
5 | CCN(CC)S(=O)(=O)c1ccc2c(c1)oc(=O)n2CC(=O)N(C)C1CCCCC1 |  | inconclusive [inhibitor, single point]
6 | Cc1cc(C)c(S(=O)(=O)c2ccccc2)c(N(C)C)n1 |  | inconclusive [inhibitor, single point]
7 | O=C(O)C[C@H]1c2ccc(C(F)(F)F)cc2S(=O)(=O)N1Cc1ccccc1 |  | inactive
8 | Cc1cccc(C)c1NC(=O)C1C2C=CC(C2)C1C(=O)O (stereo not given) | inactive: -0.7% | 
9 | Cc1ccc(C)c(NC(=O)N2CCc3cc(S(=O)(=O)N4CCC(C)CC4)ccc32)c1 |  | inconclusive [inhibitor, partial curve]
10 | CC(OC(=O)c1ccc(OCC2CCCO2)cc1)C(=O)N(C)Cc1ccccc1 (stereo not given) |  | inconclusive [inhibitor, single point]
11 | CN(C)c1ccc(NC(=O)CSc2nc3ccccc3c(=O)n2C2CCCCC2)cc1 |  | active: 18.4 µM
12 | COc1ccc(N2CCN(C(=O)c3ccc(SC)cc3OC)CC2)cc1 |  | inconclusive [inhibitor, single point]
13 | COc1ccc(CC(=O)Nc2ccc3c(c2)CCC3)cc1 |  | inconclusive [inhibitor, partial curve]
14 | COC(=O)c1sc(NC(=O)c2ccc([N+](=O)[O-])o2)c(C#N)c1C |  | active: 6.51 µM
15 | CCCCCC(=O)Nc1ccc(N2CCN(CC)CC2)c(Cl)c1 |  | inconclusive [inhibitor, single point]
16 | Cc1cccc(C)c1OCC(=O)N1CC2(C)CC1CC(C)(C)C2 (stereo not given) |  | active: 14.1 µM
17 | O=C1N/C(=C/c2cccn2-c2ccc(F)cc2)C(=O)N1Cc1ccccc1 | inactive: -18.1% | 
18 | COc1cc(CN2CCNC(=O)C2CC(=O)N2CCc3ccccc3C2)cc(OC)c1 (stereo not given) | inactive: -27.4% | 
19 | Nc1[nH]c(C(=O)c2ccccc2)c(-c2ccc(Cl)cc2)c1C(=O)NCCc1c[nH]c2ccccc12 |  | inconclusive [inhibitor, single point]
20 | Cc1ccc(-c2noc(CNCCCN(C)C)n2)cc1 | inactive: -30.2% | 
21 | C[C@@H]1CN(Cc2ccc3c(c2)CN(C(=O)c2ccc(Oc4ccccc4)o2)CCO3)C[C@H](C)O1 |  | active: 11.6 µM
22 | COc1cc(S(=O)(=O)NCc2ccccn2)ccc1Cl |  | inconclusive [inhibitor, partial curve, poor fit]
23 | C/C(CCc1oc2c(Br)cc(Br)cc2c1-c1ccc(C)o1)=N\O |  | active: 18.4 µM
24 | COc1ccccc1CNC(=O)c1ccc2c(c1)nnn2C1CCCC1 |  | active: 16.4 µM
25 | CC(=O)c1ccc(Sc2ccc(C(C)=O)cc2)cc1 |  | inconclusive [inhibitor, partial curve]

Row | Structure (SMILES) | activity change, negative = growth inhibition | Potency
26 | O=C(/C=C/c1cccs1)N1CCOCC1 | inactive: -21.8% | 
27 | CCOC(=O)COc1cccc2c(=O)n(CC(=O)NCc3ccccc3)ccc12 |  | active: 0.651 µM
28 | O=C(Nc1cccc(-c2nc3ccccc3[nH]2)c1)c1ccccc1F |  | inconclusive [inhibitor, single point]
29 | COc1ccc(-c2cccc(NC(=O)c3ccc4c(c3)OCO4)c2)nn1 |  | inconclusive [inhibitor, single point]
30 | c1ccc(COc2cccc(-c3cc4nc(NCc5cccs5)ccn4n3)c2)cc1 |  | inconclusive [inhibitor, single point]
31 | C=CCN1C=C2C(=O)C(C)(OC(=O)c3cccs3)C(=O)C=C2C=C1CCCC(=O)OC (stereo not given) | inactive: -3.64% | 
32 | CC(=O)Nc1cccc(NC(=O)c2ccc3c(c2)CCN3S(=O)(=O)c2ccccc2)c1 |  | inconclusive [inhibitor, single point]
33 | CCc1ccc(S(=O)(=O)c2nnn3c2nc(NCc2cccc(OC)c2)c2cc(Cl)ccc23)cc1 |  | inconclusive [inhibitor, single point]
34 | COc1cc(/C=N/NC(=O)CCC(=O)NC2CCCCC2)ccc1C | inactive: -9.75% | 
35 | Cc1cc(=O)[nH]c2nnc(SCC(=O)Nc3ccc(F)cc3F)n12 | inactive: -3.05% | 
36 | Cn1c(-c2ccccc2)cnc1SCC(=O)N1CCCc2ccccc21 |  | inconclusive [inhibitor, single point]
37 | CCOC(=O)C1=C(C)NC(=O)NC1c1ccc2c(c1)OCO2 (stereo not given) | inactive: -2.5% | 
38 | COc1ccc(CCNS(=O)(=O)c2ccc(Br)cc2)cc1 | inactive: 2.44% | 
39 | Cc1[nH]nc2c1C(c1ccsc1C)C(C#N)=C(N)O2 (stereo not given) | inactive: -23.7% | 
40 | Cn1c(/C=N/NC(=O)c2ccccc2Br)nc2ccccc21 |  | active: 18.4 µM
41 | CCCCN(CCCC)CCCN1CC(=O)N2[C@@H](Cc3c([nH]c4ccccc34)C2(C)C)C1=O | inactive: -14.5% | 
42 | O=c1cc(Cl)c2ccccc2n1-c1ccccc1 | inactive: -3.55% | 
43 | COc1ccc(CN(Cc2nc3ccccc3c(=O)[nH]2)C(=O)C(C)(C)C)cc1 |  | inconclusive [inhibitor, single point]
44 | COc1ccccc1NC(=O)Cn1cc(C(=O)c2ccncc2)c(=O)c2cc(C)ccc21 | inactive: -18.6% | 
45 | CN(C)c1ccc(/C=C2\C=Cc3ccccc32)cc1Br |  | inconclusive [inhibitor, single point]
46 | CCCn1c(=O)c(C(=O)NCCc2ccccc2)c(O)c2ccccc21 |  | inconclusive [inhibitor, single point]
47 | CC(C)c1c(C(=O)N(C)Cc2cccc3ncccc23)cnn1-c1nccc(-c2ccco2)n1 |  | active: 14.6 µM
48 | Cc1ccc(NC(=O)c2ncc(Cl)c(Cl)c2Cl)cc1C |  | inconclusive [inhibitor, full curve]
49 | CC1CCCCC1NCC(=O)NCc1ccc(F)cc1 (stereo not given) | inactive: 2.75% | 
50 | CC(C)C[C@H]1CN([C@@H](CC(C)C)CN2CCC[C@@H]2CN2C(=O)C(=O)NC[C@@H]2Cc2ccccc2)C(=O)C(=O)N1CC1CCCCC1 |  | inconclusive [inhibitor, single point]

Reference: PubChem BioAssay AID686978 (National Center for Advancing Translational Sciences (NCATS), 2013)
